# From paper PMC4336329 (PLoS ONE, 2015)
# Out of some 310,000 compounds screened, about 2,200 (0.71%) showed an effect of 50% or more. The effect is printed as a negative number. The list shows a part of the results.
# Target: human ether-à-go-go-related gene (hERG) potassium channel (human, UniProt Q12809)
# Test: primary screen, population patch clamp on CHO cells stably expressing hERG
# Sequence of human ether-à-go-go-related gene (hERG) potassium channel (Q12809 whole entry, looked up): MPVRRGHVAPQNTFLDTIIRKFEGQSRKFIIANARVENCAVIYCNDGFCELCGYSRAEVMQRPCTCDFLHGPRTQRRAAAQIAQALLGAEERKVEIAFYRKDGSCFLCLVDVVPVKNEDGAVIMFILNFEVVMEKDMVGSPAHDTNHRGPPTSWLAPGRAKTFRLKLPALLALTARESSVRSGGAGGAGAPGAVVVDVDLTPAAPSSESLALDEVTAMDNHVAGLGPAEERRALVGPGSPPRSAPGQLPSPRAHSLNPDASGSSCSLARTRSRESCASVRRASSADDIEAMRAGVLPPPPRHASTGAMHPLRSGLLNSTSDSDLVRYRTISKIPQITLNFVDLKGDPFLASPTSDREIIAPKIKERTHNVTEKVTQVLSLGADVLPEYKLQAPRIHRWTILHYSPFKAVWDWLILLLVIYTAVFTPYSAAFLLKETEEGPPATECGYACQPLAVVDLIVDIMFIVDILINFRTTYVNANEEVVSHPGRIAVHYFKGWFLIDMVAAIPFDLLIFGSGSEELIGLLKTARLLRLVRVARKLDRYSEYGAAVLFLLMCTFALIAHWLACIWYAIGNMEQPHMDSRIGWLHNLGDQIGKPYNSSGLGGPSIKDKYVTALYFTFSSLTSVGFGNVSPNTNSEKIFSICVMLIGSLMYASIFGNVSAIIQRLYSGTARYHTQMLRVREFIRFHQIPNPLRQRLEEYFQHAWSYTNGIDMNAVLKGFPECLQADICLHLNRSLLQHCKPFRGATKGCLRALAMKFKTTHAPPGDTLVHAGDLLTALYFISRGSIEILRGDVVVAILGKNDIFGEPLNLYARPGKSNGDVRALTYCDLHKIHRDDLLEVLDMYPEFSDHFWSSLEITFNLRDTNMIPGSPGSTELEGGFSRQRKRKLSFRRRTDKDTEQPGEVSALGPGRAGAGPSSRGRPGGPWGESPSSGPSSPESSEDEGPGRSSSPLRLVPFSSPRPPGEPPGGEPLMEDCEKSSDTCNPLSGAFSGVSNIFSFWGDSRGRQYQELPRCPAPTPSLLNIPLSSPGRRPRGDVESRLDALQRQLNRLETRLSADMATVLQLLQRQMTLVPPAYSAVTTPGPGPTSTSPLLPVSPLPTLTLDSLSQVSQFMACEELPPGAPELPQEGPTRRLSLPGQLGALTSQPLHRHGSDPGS
row,Structure (SMILES),"hERG current change (%, negative = inhibition) at 1uM"
1,COc1cccc(-c2nc(OC(C)C)c3ccccc3n2)c1,7.09%
2,Cc1c(Br)c([N+](=O)[O-])nn1C(C)C(=O)N1CCCc2ccccc21 (stereo not shown),11.6%
3,CC(CCc1ccccc1)NC(=O)COC(=O)c1ccccc1O (stereo not shown),10.6%
4,COc1ccc(/C=C/C(=O)c2cc3cccc(OC)c3oc2=O)cc1,7.45%
5,O=c1c2c(nc3cc(-c4ccccc4)[nH]n13)CCC2,12.9%
6,COc1ccc(N(CC(=O)Nc2cc([N+](=O)[O-])ccc2C)S(C)(=O)=O)cc1OC,8.94%
7,CCOc1ccc(NC(=O)N(CC(C)C)CC(C)C)cc1,10.1%
8,CCOCCc1nn2c(=O)cc(CSCC(=O)Nc3ccc(OC)cc3)nc2s1,17.5%
9,O=C(C1=C(O)C(=O)N(Cc2ccco2)C1c1cccc(Cl)c1)c1ccco1 (stereo not shown),-0.392%
10,O=C1CCc2cc(NS(=O)(=O)c3ccc(F)cc3)cc3c2N1CCC3,10.3%
11,CCCCSc1nnc2c(n1)OC=Nc1ccccc1-2,6.56%
12,COc1ccc(CC(=O)NC2CCSc3ccccc32)c(OC)c1 (stereo not shown),9.66%
13,Cc1cccc([C@@H]2[C@@H]3C(=O)N(Cc4ccccc4)C(=O)[C@@H]3[C@]3(Cc4ccc(Cl)cc4)C(=O)N(c4cccc(Br)c4)C(=O)N23)c1,9.65%
14,CCN(CC)C(=O)c1c[nH]c2ccc(S(=O)(=O)Nc3cc(C)cc(C)c3)cc2c1=O,8.26%
15,CCCCc1c(O)nc(SCC(=O)N2CCOCC2)[nH]c1=O,4.6%
16,Cc1cc(CN(C)C(=O)c2cc(COc3ccc(C)c(C)c3)on2)on1,17.3%
17,CCCCOC(=O)C1=C(C)Nc2ncnn2C1c1cccc(OC)c1OC (stereo not shown),8.7%
18,C=CCOc1c(Br)cc(CNCCCN2CCOCC2)cc1OC.Cl,9.27%
19,Cc1cc(NC(=O)CN2CCN(C)CC2)no1,13.5%
20,Cc1ccc(CN2CCC(CNS(=O)(=O)c3ccc(-c4ccc(=O)[nH]n4)s3)CC2)cc1,-28.8%
21,Cc1ccc(N=Nc2c(N)[nH]n3c(=O)cc(C)nc23)cc1,-9.23%
22,c1ccc(Cc2nnc3sc(-c4cccnc4)nn23)cc1,-12.8%
23,Cc1ccc(OCC(=O)Nc2ccc3oc(=O)ccc3c2)cc1,8.99%
24,Cc1nccn1CCc1nc(N)nc(N)n1,11.4%
25,COCCNc1nnc(SCC(=O)Nc2nnc(-c3ccccc3)o2)s1,20.7%
